Several values for one entry are separate records, joined by “and”; a condition that tells them apart may be missing. Equal entries are not always repeated. The inconclusive results got no clear call from the source; some entries with a clear call stand among them for comparison. A potency beside an inconclusive call is a rough fit, not a confirmed value. Activity calls are given as the source filed them. The call rests on the fitted dose curve; in most records, active means well fitted activation curve with a large enough effect; inconclusive means small, poorly fitted or top-dose-only effect; inactive means no such curve, though single readings can be large or run the other way.
The compounds below were run against Cellular tumor antigen p53 (Homo sapiens) (UniProt P04637) (assay: Primary qHTS for small molecule compounds that upregulate eGFP-tagged delta133p53alpha (in N-terminal) cells. (AID 2060322; further: nearly all actives have a fitted effect of over 75% in size;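 on activation: series mostly up to about 56 µM; 0% = DMSO vehicle and 100% = reference activator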)). Conditions: NCI-H358 eGFP-delta133p53alpha fluorescence, 24 h; activation: hits give high values.
Summary of the method: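 NCI-H358 cells pre-induced 24 h with 10 ng/ml doxycycline to express N-terminal eGFP-delta133p53alpha, then dosed 24 h at 37C without doxycycline; fixed, Hoechst-stained, GFP intensity by laser scanning cytometry, normalized to DMSO (0%) and 57.5 uM 5-azacytidine (100%).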
Potency means the concentration at half of the fitted maximal effect; tags describe the fitted curve by direction and shape.

Sequence of UniProt P04637 (P04637 whole entry, looked up): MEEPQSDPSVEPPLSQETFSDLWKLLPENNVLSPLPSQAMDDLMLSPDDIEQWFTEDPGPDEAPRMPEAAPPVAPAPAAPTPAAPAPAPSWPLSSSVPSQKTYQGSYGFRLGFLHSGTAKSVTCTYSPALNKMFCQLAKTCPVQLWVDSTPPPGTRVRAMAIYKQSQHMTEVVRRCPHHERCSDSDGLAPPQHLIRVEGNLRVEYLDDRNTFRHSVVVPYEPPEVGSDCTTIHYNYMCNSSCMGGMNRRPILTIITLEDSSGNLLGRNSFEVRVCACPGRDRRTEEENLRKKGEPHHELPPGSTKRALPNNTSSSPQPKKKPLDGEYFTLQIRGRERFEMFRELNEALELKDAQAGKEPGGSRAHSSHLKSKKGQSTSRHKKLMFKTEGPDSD

Compound	Potency	activation
COC(=O)C12C(=O)C(C)(O)C(=O)C1(C)C(C)=CC1C34CCC(OC3=O)C(C)(C)C4CCC12C (centres undefined)	inconclusive: 4.65 µM [activator, partial curve, poor fit]	
Cc1nc2ccccc2c(=O)n1-c1ccccc1Cl	inconclusive: 3.92 µM [activator, partial curve, poor fit]	
Cc1ccc([N+](=O)[O-])[c]2c1[O][Hg]2	inconclusive: 5.5 µM [activator, partial curve, poor fit]	
CO[C@H]1[C@H](O)[C@H](O[C@H]2CC[C@]3(C)C4CC[C@]5(C)[C@H](C6=CC(=O)OC6)CC[C@]5(O)C4CC[C@@H]3C2)O[C@@H](C)[C@@H]1O (some centres undefined)	inconclusive: 0.329 µM [activator, partial curve, poor fit]	
CC[C@]1(O)CC[C@H]2[C@@H]3CCC4=CCCC[C@@H]4[C@H]3CC[C@@]21C	inconclusive: 7.77 µM [activator, partial curve, poor fit]	
Oc1ccc2c3c1O[C@H]1c4[nH]c5c(N=C=S)cccc5c4C[C@@]4(O)[C@@H](C2)N(CC2CC2)CC[C@]314	inconclusive: 30.1 µM [activator, single point]	
CC(=O)C1CCOC1=O (centres undefined)		inactive: -9.21%
Cc1cccc(NC(=O)N[C@H]2CN(C)c3ccccc3C(c3ccccc3)=N2)c1	inconclusive: 8.49 µM [activator, single point]	
CCCC[N+]1(C)C2CC(OC(=O)[C@H](CO)c3ccccc3)CC1C1OC12 (some centres undefined)		inactive: -8.28%
COc1cc(CC(C)N)cc(OC)c1OC (centres undefined)		inactive: -10.7%
C=C1C(=O)CC2OC2(C)CC2OC(=O)C(=C)C2C(O)C1OC(=O)/C(C)=C\C (centres undefined)	active: 18.6 µM	
O=[N+]([O-])c1c(Cl)c(Cl)cc(Cl)c1Cl	inconclusive: 39.9 µM [activator, single point]	
CC(O)CN1CCN(CC(=O)[O-])CCN(CC(=O)[O-])CCN(CC(=O)[O-])CC1.[Gd+3] (centres undefined)		inactive: -12.6%
C=C1[C@@H](C)C2[C@H](Cc3ccccc3)NC(=O)[C@@]23C(/C=C/C[C@H](C)C[C@@](C)(O)/C=C/[C@@H]3OC(C)=O)[C@@H]1O (some centres undefined)	inconclusive: 37.9 µM [activator, single point]	
O=[N+]([O-])c1c2ccccc2cc2ccccc12	inconclusive: 25 µM [activator, single point]	
CCN(CC)C(=O)c1ccc(C2=CC3(CCNCC3)Oc3cccc(O)c32)cc1	inconclusive: 1.37 µM [activator, single point]	
Oc1ccc2c3c1O[C@H]1c4[nH]c5c(c4C[C@@]4(O)[C@@H](C2)N(CC2CC2)CC[C@]314)C[C@@]1(O)[C@H]2Cc3ccc(O)c4c3[C@@]1(CCN2CC1CC1)[C@H]5O4		inactive: 26.8% and inactive: -10.8%
C/C=C(\C)C(=O)O[C@@H]1[C@@H](C)[C@]2(O)C3C=C(C)C(=O)[C@@]3(O)CC(CO)=C[C@H]2C2C(C)(C)[C@@]21OC(=O)C(C)CC (some centres undefined)	inconclusive: 13.1 µM [activator, single point]	
O=c1oc2ccccc2c(O)c1Cc1c(O)c2ccccc2oc1=O	active: 17.4 µM	
C=C(CO)C(=O)O[C@H]1CC(=C)[C@@H]2C[C@H](O)C(=C)[C@@H]2[C@H]2OC(=O)C(=C)[C@@H]21	inconclusive: 23.4 µM [activator, single point]	

Compound	Potency	activation
COc1ccc(CCNCc2ccc(OC)c3ccccc23)cc1	inconclusive: 26.9 µM [activator, partial curve, poor fit]	
CN1C2CCC(C)(C)C1CC(OC(=O)C(O)(c1cccs1)c1cccs1)C2 (centres undefined)	inconclusive: 38.9 µM [activator, single point]	
O=S(=O)(O)C(F)(F)C(F)(F)C(F)(F)C(F)(F)F	inconclusive: 0.0021 µM [activator, single point]	
COC1C(O)C(C)OC(OC2C(CO)O[C@@H](O[C@@H]3CC4CCC5C(CC[C@]6(C)[C@@H](C7=CC(=O)OC7)CC[C@]56O)[C@@]4(C)[C@H](OC(C)=O)C3)C(O)C2O)C1O (some centres undefined)	inconclusive: 11.2 µM [activator, single point]	
O=S(=O)(O)C(F)(F)C(F)(F)C(F)(F)C(F)(F)C(F)(F)C(F)(F)C(F)(F)C(F)(F)F	inconclusive: 7.09 µM [activator, full curve, poor fit]	
Oc1ccc2c3c1O[C@H]1[C@@H](O)C=C[C@H]4[C@@H](C2)NCC[C@@]341	inconclusive: 46.1 µM [activator, single point]	
COC(=O)C1(C)CCC(=O)C2(C)c3c(O)cc(C(C)C)cc3C(O)C(OC(C)=O)C12 (centres undefined)		inactive: 22.9%
NC1(c2ccccc2)CCCCC1	inconclusive: 6.27 µM [activator, partial curve, poor fit]	
CC12CCC3C(CCC4(O)CC(O)CCC34C=O)C1(O)CCC2C1=CC(=O)OC1 (centres undefined)	active: 10.7 µM	
C=CCON=C(C[C@H]1O[C@@H]2O[C@]3(C)CC[C@@H]4[C@H](C)CC[C@@H]([C@H]1C)[C@@]24OO3)[C@H]1O[C@@H]2O[C@]3(C)CC[C@H]4[C@H](C)CC[C@@H]([C@@H]1C)[C@@]24OO3	inconclusive: 21.7 µM [activator, partial curve, poor fit]	
COP(=S)(OC)Oc1ccc(Sc2ccc(OP(=S)(OC)OC)cc2)cc1		inactive: -14.2%
CCCN(CCC)CCc1c[nH]c2ccccc12		inactive: 22%
C[CH2][Hg][S]c1ccccc1C(=O)O	active: 3.89 µM	
CCO[C@H]1O[C@@H]2OC3(C)CC[C@H]4[C@H](C)CC[C@@H]([C@H]1C)[C@@]24OO3	inconclusive: 9.78 µM [activator, partial curve, poor fit]	
Clc1ccc(CCC(Cn2ccnc2)Sc2c(Cl)cccc2Cl)cc1 (centres undefined)		inactive: 18.6% and inactive: -21.6%
ClC1=C(Cl)C2(Cl)C(CBr)CC1(Cl)C2(Cl)Cl (centres undefined)	inconclusive: 13.8 µM [activator, single point]	
C=C(C)C(=O)O[C@H]1[C@@H]2[C@H](C)C(=O)O[C@@H]2C[C@@H](C)[C@@H]2C=CC(=O)[C@]21C	active: 13.2 µM	
CCC1CN2CCC3(C(=O)Nc4cccc(O)c43)C2CC1/C(=C/OC)C(=O)OC (centres undefined)	inconclusive: 10.4 µM [activator, partial curve, poor fit]	
COc1cc(OC)c(OC)cc1C=O	inconclusive: 15.4 µM [activator, single point]	
